Reference: PubChem BioAssay (NCATS)
“And” between values parts separate entries of the source, which are not always exact repeats. Equal entries are not always repeated. This list was built around the results that the source calls inconclusive (neither active nor inactive); the mix of calls is not that of the screen. Potencies beside an inconclusive call are fits to weak or partial responses and may not hold up. The source made the active and inactive calls. Calls come from the whole dose curve; as a rule, active = well fitted inhibition curve with a large enough effect; inconclusive = small, poorly fitted or top-dose-only effect; inactive = flat fitted curve, though single readings scatter.

assay: P-glycoprotein substrates identified in KB-8-5-11 adenocarcinoma cell line, qHTS therapeutic library screen (AID 1346987); settings: KB-8-5-11 (P-gp overexpressing) viability, CellTiter-Glo, 72 h; series mostly up to 44.5 µM; activity change, negative = cytotoxicity: at the top concentration; note: nearly all actives have a fitted effect of over 65% in size
Method in brief: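 Luminescence from CellTiter-Glo, read 5 min after addition, quantified survival of KB-8-5-11 (P-gp-overexpressing) cells exposed to compounds for 72 h. AC50 was derived from concentration-response curves.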
% is set by controls: 0 for no effect and ±100 for the full control effect; potency is the fitted concentration of half-maximal effect; tags give direction and shape of the fitted curve.

Row | Structure (SMILES) | Potency | activity change, negative = cytotoxicity
1 | CC(=O)Nc1ccc(O)cc1 | inactive | –
2 | O[C@@H](COc1cccc2ncccc12)CN1CCN(C2c3ccccc3[C@@H]3[C@H](c4ccccc42)C3(F)F)CC1 (stereo partly specified) | inconclusive: 29.1 µM [inhibitor, single point] | –
3 | COc1ccc(-c2cc(=O)c3c(O)cc(O)cc3o2)cc1O | inconclusive: 26.4 µM [inhibitor, single point] | –
4 | COc1ccnc(CS(=O)c2nc3ccc(OC(F)F)cc3[nH]2)c1OC (stereo unspecified) | inconclusive: 29.1 µM [inhibitor, single point] | –
5 | O=c1c(-c2ccc(O)cc2)coc2cc(OC3O[C@H](CO)[C@H](O)[C@H](O)[C@H]3O)cc(O)c12 (stereo partly specified) | inconclusive: 33.2 µM [inhibitor, single point] | –
6 | O=c1cc(-c2ccccc2)oc2cc(O)c(O)c(O)c12 | – | inactive: 0.789%
7 | C=C(c1ccc(C(=O)O)cc1)c1cc2c(cc1C)C(C)(C)CCC2(C)C | inconclusive: 18.4 µM [inhibitor, single point] and inconclusive: 39.8 µM [inhibitor, single point] and inconclusive: 29.1 µM [inhibitor, single point] | –
8 | COc1cccc(-c2cc(=O)c3ccccc3o2)c1N | inactive and inconclusive: 29.1 µM [inhibitor, single point] | –
9 | O=C(NCc1ccccc1)c1csc(Nc2ccncn2)n1 | inconclusive: 20.6 µM [inhibitor, single point] | –
10 | O=C1c2c(O)cc(O)cc2O[C@H](c2cc(O)c(O)c(O)c2)[C@H]1O | – | inactive: 3.23%
11 | O=c1c(-c2ccc(O)cc2)coc2cc(O)cc(O)c12 | inconclusive: 29.1 µM [inhibitor, single point] | –
12 | C=CC(=O)Nc1cccc(Sc2nc(Nc3ccc(N4CCN(C)CC4)cc3)ncc2Cl)c1 | inconclusive: 37.2 µM [inhibitor, single point] and active: 23.1 µM | –
13 | CC(=NNC(=S)N1CCC1)c1ccccn1 | inconclusive: 0.0235 µM [inhibitor, full curve] | –
14 | Cc1nc(NC(=O)N2CCC[C@@H]2C(N)=O)sc1-c1ccnc(C(C)(C)C(F)(F)F)c1 | active: 6.62 µM | –
15 | CCCCCNC(=O)N1CCC(CN(Cc2ccc(Cl)cc2)Cc2ccc([N+](=O)[O-])s2)C1 (stereo unspecified) | inconclusive: 9.35 µM [inhibitor, partial curve] | –
16 | Cc1ccc(C(=O)Nc2ccc(S(=O)(=O)O)c3cc(S(=O)(=O)O)cc(S(=O)(=O)O)c23)cc1NC(=O)c1cccc(NC(=O)Nc2cccc(C(=O)Nc3cc(C(=O)Nc4ccc(S(=O)(=O)O)c5cc(S(=O)(=O)O)cc(S(=O)(=O)O)c45)ccc3C)c2)c1 | inconclusive: 16.6 µM [inhibitor, partial curve, poor fit] | –
17 | COCCCN1CCC(NC(=O)c2cc(Cl)c(N)c3c2OCC3)CC1 | inconclusive: 33.2 µM [inhibitor, single point] | –
18 | O=C(CCCN1CCC(O)(c2ccc(Cl)cc2)CC1)c1ccc(F)cc1 | active: 18.4 µM | –
19 | O=C(c1ccc(F)c(F)c1Nc1ccc(I)cc1F)N1CC(O)([C@H]2CCCCN2)C1 | active: 20.9 µM | –
20 | CS(=O)(=O)N(Cc1ccco1)CC(O)Cn1c2ccccc2c2ccccc21 (stereo unspecified) | inconclusive: 16.6 µM [inhibitor, partial curve] and inconclusive: 29.1 µM [inhibitor, partial curve, poor fit] | –
21 | CN1CCC(=C2c3ccccc3CCc3sccc32)CC1 | inconclusive: 23.5 µM [inhibitor, single point] and inconclusive: 16.4 µM [inhibitor, partial curve, poor fit] | –
22 | c1ccc2c(Cc3c[nH]c4ccccc34)c[nH]c2c1 | inconclusive: 33.2 µM [inhibitor, single point] | –
23 | Oc1cc(O)cc(C=Cc2ccc(O)c(O)c2)c1 | inconclusive: 26.4 µM [inhibitor, single point] | –
24 | Cc1cccc(Nc2nc(-c3ccncc3)cs2)c1 | inconclusive: 33.2 µM [inhibitor, single point] and inconclusive: 29.1 µM [inhibitor, single point] | –
25 | CC(C)NCC(O)COc1ccc(CCOCC2CC2)cc1 (stereo unspecified) | inconclusive: 13 µM [inhibitor, partial curve, poor fit] | –
26 | Clc1ccc(C(Cn2ccnc2)OCc2ccc(Sc3ccccc3)cc2)c(Cl)c1 (stereo unspecified) | inconclusive: 29.6 µM [inhibitor, single point] | –
